In PubChem BioAssay AID1508623 (National Center for Advancing Translational Sciences (NCATS), 2021):
The whole screen tested about 48,000 compounds, of which about 450 (0.94%) were called active. About 19% were inconclusive and are not listed. Calls come from the whole dose curve; as a rule, active = well fitted inhibition curve with a large enough effect; inconclusive = small, poorly fitted or top-dose-only effect; inactive = no such curve, though single readings can be large or run the other way. This is one part of the list.

experiment: Primary qHTS for Identification of Small Molecule Inhibitors of Huntingtin Promoter Activity; conditions: HEK293 HTT promoter firefly luciferase reporter (activity 0% = vehicle and -100% = no light), 24 h; series mostly up to 57.5 µM; activity change, negative = inhibition: at the top concentration; note: nearly all actives have a fitted effect of over 50% in size
Procedure, shortened: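 Luminescence was read after Dual-Glo reagent and a 10 min room-temperature incubation. Values were normalized to vehicle (0% activity) and zero RLU (-100% activity). Reporter HEK293 cells had been exposed to compounds (up to 57.5 uM final) for 24 h.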

Activity change, negative = inhibition, inactive:
CCOc1cc2sc(N3CCC(C(=O)Nc4ccc(C)cc4)CC3)nc2cc1Br 85.1%
CCCCCn1c(=N)c(S(=O)(=O)c2ccccc2)cc2c(=O)n3ccccc3nc21 7.23%
CCOc1ccc(CCNC(=O)Cn2nc(CC)n3c(cc4sc(CC)cc43)c2=O)cc1OCC -15.3%
O=c1oc2c(CN3CCOCC3)c(O)ccc2cc1-c1ccc(Cl)cc1 20.7%
CCOC(=O)c1sc(NC(=O)c2nc3ncccn3n2)c(C(=O)OC)c1C -2.6% [at 11.5 µM]
CCc1ccc(CSc2nc(-c3ccc(OC)cc3)nc3c2Cc2c(CO)cnc(C)c2O3)cc1 -12.7%
COc1ccc(S(=O)(=O)c2cn(Cc3ccccc3)c3cc(N4CCCC4)c(F)cc3c2=O)cc1 -6.69%
COc1ccc(CCNC(=O)CCCCn2c(=O)c3ccccc3n(CC(=O)Nc3ccccc3C)c2=O)cc1OC 0.636%
CCc1ccccc1NC(=O)Cn1c(=O)nc(-c2ccccc2)c2ccccc21 -3.09%
COc1ccc(CCNC(=O)CCn2c(=O)c3ccccc3n(Cc3ccc(Cl)cc3)c2=O)cc1OC -8.31%
CCn1c2c(c(=O)n3ncc(C(=O)Nc4cccc(Cl)c4C)c13)CN(Cc1ccc(OC)cc1)CC2 1.62%
CCOC(=O)c1c(C)[nH]c(C)c1S(=O)(=O)N1CCC(C(=O)NCc2ccc(C)cc2)CC1 15.6%
Cc1cc(C)cc(NC(=O)CSc2nncn3c2cc2occc23)c1 -20.9%
CCCn1c(SCC(O)c2cccc(OC)c2)nc2ccccc21 (stereo not given) -15.1%
COc1ccccc1C(=O)NC1(C(F)(F)F)C(=O)Nc2c1c(=O)[nH]c(=O)n2CCc1ccccc1 (stereo not given) -12.8%
Cc1ccc(C)c(CN2CCCN(Cc3cc(C)ccc3C)S2(=O)=O)c1 -12.5%
Cc1ccc(OCc2nc(-c3ccc(C(=O)N4CCN(c5ccc(Cl)cc5)CC4)cc3)oc2C)cc1 -22.6%
CC(C)CCNC(=O)CSc1c2c(nc3ccc(Cl)cc13)CCCC2 -21.1%
Cc1cccc(-c2nc(SCC(=O)Nc3cccc(C(F)(F)F)c3)n3[nH]c(=O)cc3n2)c1 -23.7%
CCOc1ccc(CNC(=O)C2CCCN(S(=O)(=O)c3ccc4c(c3)CCCC(=O)N4)C2)cc1 (stereo not given) -30.3%
Cc1cc(C(=O)NCc2ccccc2C)c2c(C)nn(-c3cccc(F)c3)c2n1 -18.9%
CCOC(=O)C1=C(CN2CCN(CC)CC2)NC(=O)NC1c1ccc(Cl)cc1 (stereo not given) 3.76%
CCCn1c(=O)sc2cc(NC(=O)c3ccccc3OCC)ccc21 -6.16%
CC[C@H]1OC(=O)[C@H](C)[C@@H](O[C@H]2C[C@@](C)(OC)[C@@H](O)[C@H](C)O2)[C@H](C)[C@@H](O[C@@H]2O[C@H](C)C[C@H](N(C)C)[C@@H]2O)[C@](C)(OC)C[C@@H](C)C(=O)[C@H](C)[C@@H](O)[C@]1(C)O -14.3%
O=C(CC1N=C2c3ccccc3N=C(SCc3ccc(F)cc3)N2C1=O)NCc1cccs1 (stereo not given) -14%
CCn1c(SCC(=O)c2ccc([N+](=O)[O-])cc2)nnc1-c1ccc(Cl)cc1 -7.38%
CCc1ccc(NC(=O)Cn2ncc3c4ccccc4n(C)c3c2=O)cc1 0%
CCCCn1cc(S(=O)(=O)c2ccc(OC)cc2)c(=O)c2cc(F)c(F)cc21 -27.5%
Clc1cccc(-c2csc(-c3nc(-c4ccc(Br)s4)cs3)n2)c1 -3.67%
CCN(CC)C(=O)c1sc2c(c1C)c(=O)n(-c1ccccc1)c(=O)n2Cc1cc(=O)n2ccccc2n1 -3.07%
COC(=O)Cn1c(CN2CCN(c3ccc(OC)cc3)CC2)nc2c1c(=O)[nH]c(=O)n2C -6.89%
CCOC(=O)c1c(S(=O)(=O)NCC(=O)Nc2cccc(CC)c2)c(C)n(C)c1C -5.3%
CCn1nc(C)c(CCN(C)C(=O)Nc2cc(C)cc(C)c2)c1C -1.27%
O=C(Nc1cnc(N2CCC(N3CCCCC3)CC2)c(C(=O)O)c1)c1ccc(Br)cc1 -13.2%
Cc1ccc(CSc2nc3ccc(NC(=O)COc4ccc(F)cc4)cc3s2)cc1 -3.48%
COc1ccc(-n2c(=O)c3c(c4cc(OC)ccc4n3C)n(Cc3ccc(F)cc3Cl)c2=O)cc1 -24.7%
Nc1nonc1C(=O)NCCNCc1ccc(Cl)c(Cl)c1 -4.14%
COc1ccccc1NC(=O)Cn1c(=O)n(Cc2ccccc2)c(=O)c2c3c(sc21)CN(C(C)=O)CC3 -0.728%
CCn1ccc2c(OCC(=O)NCc3ccc(C)cc3)cccc2c1=O -1.56%
Cc1cc(C)nc(-n2nc(C)c3c2NC(=O)CC3c2cc(F)ccc2F)n1 (stereo not given) -14.8%
Cn1c(=O)cc(SCC(=O)N2CCN(c3ccccc3F)CC2)c2cc(Cl)ccc21 -5.19%
CC(C)Sc1ncc(Cl)c(C(=O)Nc2ccc(S(=O)(=O)Nc3ncccn3)cc2)n1 -25.6%
Cc1ccc(NC(=O)c2cc3c([nH]c2=O)CC(C)(C)CC3=O)c(C)c1 76.7%
CC(C)c1ccc2c(c1)-c1ccccc1S(=O)(=O)N2CC(=O)N1CCCCC1 28%
Cc1cc(Cl)ccc1OCC(=O)Nc1c(C(=O)c2ccccc2)oc2ccccc12 -9.29%
O=C(CSc1ncc(-c2ccccc2)[nH]1)Nc1cccc(C(F)(F)F)c1 -7.4%
Cc1ccccc1CCNC(=O)C1CCN(c2nc3ccccc3nc2C(F)(F)F)CC1 -22.1%
COC(=O)c1cc(NC(=O)c2sc3ncn(Cc4cccc(F)c4)c(=O)c3c2C)cc(C(=O)OC)c1 -2.34%
COc1cc(CN(C(=O)c2cccc(C)c2)c2ccccn2)cc(OC)c1OC -30.5%
Cc1ccc(-n2c(SCC(=O)NCc3ccccc3)nc3c([nH]c4ccccc43)c2=O)cc1 -16.4%
COc1ccccc1NC(=O)CCS(=O)(=O)c1cc2c3c(c1)CCN3C(=O)CC2 4.42%
O=C(NCc1ccccc1Cl)c1cc(=O)[nH]c2ccc(S(=O)(=O)N3CCCCC3)cc12 -3.06%
CC[C@@H]1C=C(C)C[C@H](C)C[C@H](OC)[C@H]2O[C@@](O)(C(=O)C(=O)N3CCCC[C@@H]3C(=O)O[C@H](C(C)=C[C@@H]3CC[C@H](Cl)[C@H](OC)C3)[C@H](C)[C@@H](O)CC1=O)[C@H](C)C[C@H]2OC -10.6%
CCC1CCCCN1C(=O)c1nn(-c2ccc(OC)cc2)c(=O)c2c1c1ccccc1n2C (stereo not given) -15%
CCN(Cc1ccccc1)C(=O)CN1C(=O)COc2ccc(S(=O)(=O)N(CC)CC)cc21 -14.5%
